In PubChem BioAssay (NCATS):
Some of the results follow. Further columns of the screen follow, without active or inactive calls. Compounds called inactive in the main read-out are mostly missing here. The note in brackets gives the kind of curve behind each potency; many fits are weak. Bridge positions count the residues as written; N and C are the ends. Square brackets hold non-standard residues; d marks the D form. Peptide text beside a SMILES is read from it. * marks the point of attachment. ξ: configuration not given here. ξDab(CH2SO3H) = NC(CCNCS(=O)(=O)O)C(=O)O; Heptanoyl(6-Me) = CC(C)CCCCC(=O)*; Dab = NCC[CH](N)C(=O)O

assay: qHTS Assay for Lipid Storage Modulators (AID 1519); settings: Drosophila S3 cells, BODIPY lipid droplet/cell ratio, laser cytometry; measured here: cell number channel AC50; cells loaded with oleic acid
Summary of the method: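 Cells seeded at 5,000 per well were treated with compounds over a concentration series and loaded with oleic acid (400 uM, as added). Lipid droplet fluorescence (488 nm excitation, 500-530 nm channel) was read by laser-scanning cytometry and normalized to 20 uM Triacsin C.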
Tags tell the direction and shape of the fitted curve.

Row | Compound | AC50
1 | CNCC(O)c1cccc(O)c1 (stereo not drawn) | 25.1 µM [rising, partial curve, poor fit]
2 | CN(C)c1ncc2nc(-c3ccc(F)cc3)c(=O)n(CCC#N)c2n1 | 0.178 µM [rising, partial curve]
3 | Cc1noc(C)c1-c1nc(Nc2ccc(F)cc2)c2ccccc2n1 | 0.355 µM [rising, full curve]
4 | COc1cc(O)c2c(=O)cc(-c3ccccc3)oc2c1 | 12.6 µM [rising, partial curve]
5 | COc1ccccc1CNc1ccnc(-c2ccccc2Cl)n1 | 3.16 µM [rising, full curve, poor fit]
6 | COc1cc(O)c2c(=O)cc(-c3ccc(OC)c(-c4c(O)cc(O)c5c(=O)cc(-c6ccc(O)cc6)oc45)c3)oc2c1 | 35.5 µM [falling, single point]
7 | Cc1cnc(CNc2ccnc(-c3cccnc3)n2)cn1 | 2.24 µM [rising, full curve, poor fit]
8 | Cc1ccccc1-c1nc(N(C)C)c2ccccc2n1 | 1.12 µM [rising, full curve, poor fit]
9 | COC(=O)C(C)(N)Cc1ccc(O)cc1 (stereo not drawn) | 5.01 µM [falling, partial curve, poor fit]
10 | O=C(c1cccc(F)c1)N1CCC[C@@]2(CCN(Cc3ccncc3)C2)C1 | 0.0631 µM [rising, full curve, poor fit]
11 | COc1cc2cc(Oc3ccc4ccc(=O)oc4c3)c(=O)oc2cc1O | 35.5 µM [rising, partial curve]
12 | CCc1ccc2c(-c3cccc(Cl)c3)nc(=O)n(CC)c2n1 | 0.224 µM [rising, full curve]
13 | c1cncc(-c2cc(-n3ccnc3)ncn2)c1 | 1.78 µM [rising, full curve]
14 | Cc1cnc(CNc2nc(-c3ccccc3C(F)(F)F)nc3ccccc23)cn1 | 1.41 µM [rising, full curve]
15 | Cc1nc2cnc(Oc3ccccc3)nc2n(Cc2cccs2)c1=O | 8.91 µM [rising, partial curve]
16 | COc1ccc2c(=O)cc(-c3ccccc3)oc2c1O | 28.2 µM [rising, partial curve]
17 | CN(C)c1ncc2nc(CCc3ccccc3)c(=O)n(CCc3ccccc3)c2n1 | 2 µM [rising, partial curve, poor fit]
18 | COc1ccc(CNc2ccnc(-c3ccccc3Cl)n2)c(OC)c1 | 3.16 µM [rising, partial curve, poor fit]
19 | O=c1cnc2cnc(Oc3ccccc3)nc2n1Cc1ccc(F)cc1 | 20 µM [rising, partial curve]
20 | COc1ccccc1CCn1c(=O)c(CCc2ccccc2)nc2cncnc21 | 0.891 µM [rising, full curve]
21 | O=c1c(O)c(-c2cccc(O)c2)oc2ccccc12 | 4.47 µM [rising, full curve]
22 | Cc1cnc(CNc2nc(-c3ccccc3Cl)nc3ccccc23)cn1 | 1.41 µM [rising, full curve]
23 | CCC(C)C1NC(=O)C(CCNCS(=O)(=O)O)NC(=O)C(NC(=O)C(CCNCS(=O)(=O)O)NC(=O)C(NC(=O)C(CCNCS(=O)(=O)O)NC(=O)CCCCC(C)C)C(C)O)CCNC(=O)C(C(C)O)NC(=O)C(CCNCS(=O)(=O)O)NC(=O)C(CCNCS(=O)(=O)O)NC(=O)C(C(C)CC)NC1=O (stereo not drawn) ({Heptanoyl(6-Me)}-[ξDab(CH2SO3H)]T[ξDab(CH2SO3H)][Dab][ξDab(CH2SO3H)]II[ξDab(CH2SO3H)][ξDab(CH2SO3H)]T; lactam 4-C; configuration not given here) | 22.4 µM [rising, partial curve]
24 | C[N+](C)(C)CCOC(=O)CCC(=O)OCC[N+](C)(C)C | 8.91 µM [falling, full curve]
25 | COc1ccc2c(c1OC)C(=O)O[C@H]2C1c2c(cc3c(c2OC)OCO3)CCN1C (stereo partly drawn) | 3.16 µM [rising, partial curve, poor fit]
26 | COCCn1c(=O)c(-c2cccc(F)c2)nc2cncnc21 | 6.31 µM [rising, partial curve]
27 | CCOC(=O)C1=C(N)Oc2ccc(Br)cc2[C@@H]1[C@@H](C#N)C(=O)OCC | 7.08 µM [rising, full curve]
28 | CSC(=N)N | 1.26 µM [rising, full curve, poor fit]
